Reference: paper PMC4336329 (PLoS ONE, 2015)
Hit rate of the full screen: of about 310,000 compounds, about 14,000 (4.5%) showed an effect of 50% or more. Effects have a minus sign here. The list shows a part of the results.

Target: human ether-à-go-go-related gene (hERG) potassium channel (human, UniProt Q12809)
Experiment: primary screen, population patch clamp on CHO cells stably expressing hERG
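Further: peak tail current of the secondary pulse compared with the same well before compound.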

human ether-à-go-go-related gene (hERG) potassium channel, sequence (Q12809 whole entry, looked up): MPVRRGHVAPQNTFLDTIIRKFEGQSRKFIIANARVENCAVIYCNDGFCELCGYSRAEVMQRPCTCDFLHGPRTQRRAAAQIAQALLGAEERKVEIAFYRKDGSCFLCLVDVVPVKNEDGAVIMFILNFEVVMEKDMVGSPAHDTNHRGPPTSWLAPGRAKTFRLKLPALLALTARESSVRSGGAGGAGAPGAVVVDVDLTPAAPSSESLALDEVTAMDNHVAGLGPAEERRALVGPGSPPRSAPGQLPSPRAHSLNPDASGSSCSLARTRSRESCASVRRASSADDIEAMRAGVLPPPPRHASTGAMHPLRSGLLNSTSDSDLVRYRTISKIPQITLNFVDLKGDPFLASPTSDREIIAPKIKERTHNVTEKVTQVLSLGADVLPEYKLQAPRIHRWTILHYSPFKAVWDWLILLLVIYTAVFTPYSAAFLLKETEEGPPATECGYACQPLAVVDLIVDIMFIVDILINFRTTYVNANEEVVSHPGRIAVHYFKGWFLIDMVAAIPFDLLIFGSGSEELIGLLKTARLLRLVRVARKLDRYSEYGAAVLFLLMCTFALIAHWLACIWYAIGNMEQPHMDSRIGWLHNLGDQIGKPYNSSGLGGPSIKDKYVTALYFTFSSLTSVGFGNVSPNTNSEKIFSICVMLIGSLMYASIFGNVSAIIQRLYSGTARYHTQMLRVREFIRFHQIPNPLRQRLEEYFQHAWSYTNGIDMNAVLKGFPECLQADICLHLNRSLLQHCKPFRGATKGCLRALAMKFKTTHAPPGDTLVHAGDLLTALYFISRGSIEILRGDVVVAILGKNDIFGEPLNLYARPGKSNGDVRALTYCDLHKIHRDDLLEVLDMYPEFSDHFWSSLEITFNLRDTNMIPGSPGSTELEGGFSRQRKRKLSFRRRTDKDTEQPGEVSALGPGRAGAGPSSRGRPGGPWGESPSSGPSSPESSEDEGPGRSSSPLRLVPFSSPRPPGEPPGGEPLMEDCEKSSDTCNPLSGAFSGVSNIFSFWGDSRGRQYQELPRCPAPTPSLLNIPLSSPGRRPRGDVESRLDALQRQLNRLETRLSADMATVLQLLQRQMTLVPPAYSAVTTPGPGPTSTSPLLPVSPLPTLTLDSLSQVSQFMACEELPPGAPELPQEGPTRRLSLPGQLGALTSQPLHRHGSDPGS

| Structure (SMILES) | hERG current change (%, negative = inhibition) at 10uM [%] |
| --- | --- |
| Cc1cc2nccc(-c3ccncc3)n2n1 | 32.3 |
| COc1ccccc1N(CC(=O)NC1CC2CCC1C2)S(=O)(=O)c1ccc(C)cc1 (centres unmarked) | -38 |
| CC(=O)N1CCOc2ccc(S(=O)(=O)NCc3ccc(C)cc3)cc21 | 1.55 |
| CCOc1ccc(-c2nc(-c3cccs3)c(CC(=O)O)s2)cc1OC | 19.1 |
| Cc1cccc(NC(=S)Nc2ccc(Cl)c(Cl)c2)c1 | 18.5 |
| Cn1c(-c2sccc2OCc2cccc(C(F)(F)F)c2)n[nH]c1=S | -19.8 |
| COc1ccc(Cl)cc1NC(=O)/C=C\C(=O)O | -0.13 |
| CC(C)(C)c1ccc(-c2nc(C#N)c(N3CCC(C(N)=O)CC3)o2)cc1 | -63.3 |
| O=C(C1CCCN(Cc2cc(Br)ccc2O)C1)N1CCCCC1.O=C(O)C(=O)O (centres unmarked) | -31.6 |
| CC1CCCN(C(=O)c2nn(C)c3c2CSc2ccccc2-3)C1 (centres unmarked) | -11.7 |
| COC(=O)C1CCN(C(=O)c2sc3nc(-c4ccc(F)cc4)cn3c2C)CC1 | -59.5 |
| COCCn1c(SCC(=O)Nc2cc(C)on2)nc2ccccc2c1=O | -4.12 |
| O=[N+]([O-])c1cccc(-c2nc3ccc([N+](=O)[O-])cc3[nH]2)c1 | 8.34 |
| CC(C)Cn1c2c(c(O)c(C(=O)Nn3c(Cc4ccccc4)nc4ccccc4c3=O)c1=O)CCCC2 | -23.4 |
| CCOC(=O)N1CCC(NC(=O)c2cnn3ccccc23)CC1 | 9.62 |
| CCOC(=O)C1=C(C)NC(C)=C(C(=O)OCC)C1C(=O)OCC(=O)N1CCC(C)CC1 | 16.7 |
| Cc1cccc(OCCCC(=O)Nc2ccc(Br)cc2)c1 | 15.8 |
| CN(C)C(=O)Oc1ccc2c(=O)c(Oc3ccccc3Br)coc2c1 | 7.02 |
| CC(C)c1ccc(NC(=O)NCc2cccnc2)cc1 | 11.9 |
| CCCCNC(=O)N(c1c(N)n(Cc2ccccc2)c(=O)[nH]c1=O)C1CCCC1 | 19.1 |

| Structure (SMILES) | hERG current change (%, negative = inhibition) at 10uM [%] |
| --- | --- |
| CNc1ncnc(Sc2ccc(Cl)cc2)c1[N+](=O)[O-] | 3.6 |
| C=COCCNC(=O)C(=O)NCC(C)C | -2.42 |
| CCOC(=O)c1c(C)n(C)c2cc([N+](=O)[O-])c(O)c([N+](=O)[O-])c12 | 1.25 |
| O=C(O)CCC(C(=O)O)n1c(O)c(C2=c3ccccc3=NC2=O)sc1=S (centres unmarked) | 20.5 |
| N/C(=N\OC(=O)C1CCCCC1)c1cccnc1 | 14.1 |
| O=C(O)Cn1nc2c3c(cccc3c1=O)-c1ccccc1-2 | 8.18 |
| COc1ccc(OC)c(/C=N/NC(=O)CCc2c(C)n[nH]c2C)c1 | 6.79 |
| CN1CCN(c2ccc(C(N)=O)cc2N)CC1 | 6.81 |
| O=C(/C=C/c1cccc([N+](=O)[O-])c1)Nc1cc(C(=O)O)cc(C(=O)O)c1 | 25.2 |
| Cc1ccc(OCCOCCn2ccnc2)c(Br)c1 | -38.4 |
| Cn1c(CCN2CCCCC2)nc2cc([N+](=O)[O-])ccc21 | -70.2 |
| CSCCC(=O)N1CCC(n2nccc2NC(=O)CCCc2ccccc2)CC1 | -5.8 |
| CC1CN(c2oc(-c3ccco3)nc2S(=O)(=O)c2ccccc2)CC(C)O1 (centres unmarked) | -32.1 |
| Cc1cc(Nc2ccc(F)cc2)nc(N)n1 | -14.9 |
| CCN(c1ccccc1)S(=O)(=O)c1ccc(Cl)c(NC(=O)COC(=O)C2CC2C)c1 (centres unmarked) | -7.92 |
| Fc1ccccc1/C=C/c1ccc2ccccc2n1 | 14.4 |
| Cc1ccc(-n2nc(C)c3cc(C(=O)O)sc32)cc1 | 11.7 |
| NC(=O)c1cc(N2C(=O)C=CC2=O)ccc1Cl | 1.79 |
| O=C(Nc1ncc2c(n1)-c1ccccc1CC2)c1ccccc1 | -26.3 |
| Cc1ccc(S(=O)(=O)CC(=O)Nc2ccc3nc(C)sc3c2)cc1 | -2.1 |

| Structure (SMILES) | hERG current change (%, negative = inhibition) at 10uM [%] |
| --- | --- |
| CCCCC1CCC(C(=O)N(C)CC(=O)Nc2cccc(OC)c2)CC1 (centres unmarked) | 19.4 |
| CC(C)(C)c1ccc(/C=C/C(=O)NCCCn2ccnc2)cc1 | -46.5 |
| Cc1cc2oc(C(=O)N(Cc3ccccc3)c3ccccn3)cc(=O)c2cc1Cl | 6.98 |
| CCN1CCc2nc3ccccc3c(C(=O)Nc3ccc(F)cc3)c2C1 | -74.5 |
| CC1(C(=O)O)CCC(C(=O)Nc2ccccc2)C1(C)C (centres unmarked) | 19.9 |
| COC(=O)Nc1cccn(Cc2c(Cl)cccc2Cl)c1=O | 0.735 |
| O=C(Nc1nnc(C2CC2)s1)C1Cc2ccccc2CN1S(=O)(=O)c1cccs1 (centres unmarked) | 1.33 |
| CCOc1ccc(C(=O)NCC(=O)NC(C)CCc2ccccc2)cc1OCC (centres unmarked) | -34.9 |
| CCCCOc1cccc(C2C(C(=O)c3cccs3)=C(O)C(=O)N2Cc2cccnc2)c1 (centres unmarked) | 30.4 |
| CC1(C)CC(=O)C=C(c2cccs2)C1 | -8.45 |
| CN1C(=O)C(=O)/C(=C(/O)c2ccccc2)C1c1ccc(Br)cc1 (centres unmarked) | 13.6 |
| CS(=O)(=O)N1CCN(c2ccc(C(=O)N3CCOCC3)cc2[N+](=O)[O-])CC1 | 0.387 |
| COc1cc(OC)c2c3c(c(C4CCCCC4)nc2c1)CCC3 | 8.05 |
| CC(C)c1ccc(C2C(C(=O)c3ccco3)=C(O)C(=O)N2CC2CCCO2)cc1 (centres unmarked) | 17.1 |
| Cc1cccc(CCN2C(Nc3ccccc3)=NC[C@@H]2C)c1 | -23 |
| COC(=O)C(C(=O)Nc1nc2ccccc2s1)C1CCCC1 (centres unmarked) | 2.83 |
| O=C(O)c1cc2[nH]c3c(c2cc1Cl)CCCC3 | -26.8 |
| O=C(Nc1nncs1)C1CC(=O)N(C2CCCC2)C1 (centres unmarked) | 0.553 |
| Cn1ncnc2c(=O)n(C)c(=O)nc1-2 | -2.67 |
